Source: PubChem BioAssay AID1508623 (National Center for Advancing Translational Sciences (NCATS), 2021)
Among all 48,000 compounds or so, about 450 (0.94%) were called active. Inconclusive results (about 19%) are left out. Calls follow the shape of the dose curve; as a rule, active = well fitted inhibition curve with a large enough effect; inconclusive = small, poorly fitted or top-dose-only effect; inactive = no such curve, though single readings can be large or run the other way. Some of the results follow.

Test: Primary qHTS for Identification of Small Molecule Inhibitors of Huntingtin Promoter Activity; also: nearly all actives have a fitted effect of over 50% in size
Conditions: HEK293 HTT promoter firefly luciferase reporter (activity 0% = vehicle and -100% = no light), 24 h; series mostly up to 57.5 µM; activity change, negative = inhibition: at the top concentration
Method in brief: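 HEK293 luciferase promoter-reporter cells (2,500/well) plated 24 h, then compounds added at up to 57.5 uM final for 24 h at 37 °C. Firefly luminescence by Dual-Glo, normalized to vehicle (0%) and zero RLU (-100%).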
Potency is read from the fitted curve at half-maximal effect.

| SMILES | activity change, negative = inhibition | Potency |
| --- | --- | --- |
| Cc1ccc(CSc2ncc(Cl)c(C(=O)Oc3ccccc3F)n2)cc1 | inactive: 31.8% |  |
| Cc1cn(C)c(CC(=O)Nc2cccc(C#N)c2)c1C(=O)O | inactive: -6.64% |  |
| Cc1ccc(-c2nn3c(=O)cc(CN4CCN(C(=O)Nc5cccc(C(F)(F)F)c5)CC4)nc3s2)cc1 | inactive: 3.9% |  |
| Cc1ccc(CCNC(=O)c2cnc3c(-c4ccc(F)cc4)c(C)nn3c2C)cc1 | inactive: 3.74% |  |
| CCOc1ccc(CN2CCN(Cc3ccc4c(c3)c3ccccc3n4CC)CC2)cc1 |  | active: 31.6 µM |
| O=C(CCn1c(=O)c2ccccc2n(Cc2cccc(F)c2)c1=O)NCc1ccc2c(c1)OCO2 | inactive: -8.99% |  |
| COc1cc(OC)c(OC)cc1CN1CCc2nc(N3CCN(C)CC3)ncc2C1 | inactive: -19.4% |  |
| CCc1nn(CC(=O)NCc2ccc(C)cc2)c(=O)c2cc3occc3n12 | inactive: -10.6% |  |
| COc1ccc(N2CCN(c3nc4ccc(C(=O)c5ccccc5)cc4n4cnnc34)CC2)cc1 | inactive: -12% |  |
| COc1ccc(NC(=O)Cc2c(C(=O)O)[nH]c3ccccc23)cc1OC | inactive: -16.5% |  |
| CCOC(=O)c1c(C)n(C)c2ccc(O)cc12 | inactive |  |
| Cc1ccc(NC(=O)c2oc3ccc(S(=O)(=O)N4CCOCC4)cc3c2C)c(C)c1 | inactive: -9.96% |  |
| COc1ccc(CNC(=O)Cc2coc3ccc(C)cc23)cc1 | inactive: -15.7% |  |
| COc1cc(C2c3c(oc4ccc(F)cc4c3=O)C(=O)N2Cc2ccc3c(c2)OCO3)ccc1O (centres undefined) | inactive: 1.07% |  |
| CCCCN(CC)C(=O)c1c[nH]c2ccc(S(=O)(=O)N(C)c3ccc(Cl)cc3)cc2c1=O | inactive: -26.2% |  |
| COc1ccc(C(=O)Nc2ccc3nc4c(c(Nc5ccccc5OC)c3c2)CCCC4)c(OC)c1 | inactive: -20.9% |  |
| COC(=O)c1cccnc1-n1c(=O)c2cccnc2n(CC(=O)Nc2cccc(C)c2)c1=O | inactive: -0.385% |  |
| CC(C)Oc1ccc(CNC(=O)c2ccc3c(c2)nc2n3CCOC2)cc1 | inactive: 35.5% |  |
| COc1cc(NC(=O)N2CCSc3ccccc32)cc(OC)c1OC | inactive: -5.45% |  |
| CCN(c1ccccc1C)S(=O)(=O)c1nnc(NC(=O)c2ccccc2C)s1 | inactive: -28.2% |  |
| Nc1cc(-c2ccncc2)c[nH]c1=O | inactive: 2.99% |  |
| CCCc1nnc(NC(=O)Nc2ccccc2Cl)s1 | inactive: 47.5% |  |
| CCOc1ccc(OCC)c(NC(=O)C2CCCN(S(=O)(=O)c3cc(Br)cc4c3N(C(=O)CC)CC4)C2)c1 (centres undefined) | inactive: 4.15% |  |
| Cc1nc2nc(C)c(NS(=O)(=O)c3ccc(CC(C)C)cc3)c(=O)n2[nH]1 | inactive: -16.3% |  |
| Cc1nn(C(=O)c2c(F)cccc2F)c(C)c1S(=O)(=O)N1CCCCCC1 | inactive: -5.58% |  |

| SMILES | activity change, negative = inhibition | Potency |
| --- | --- | --- |
| CCn1c(CN2CCOCC2)nc2cc(NC(=O)c3cccc([N+](=O)[O-])c3)ccc21 | inactive: -10.4% |  |
| COc1ccc(NC(=O)Cn2cc(C(=O)c3ccccc3OC)c(=O)c3ccc(C)nc32)cc1OC | inactive: -20.9% |  |
| Cn1c(=O)c2c(-c3ccccc3)n(CCCO)cc2n(C)c1=O | inactive: -6.61% |  |
| CC(=O)Nc1nnc2n1CCS2 | inactive: -8.88% |  |
| N#Cc1ccc(Oc2ccc3c(c2)COB3O)cc1 | inactive: -0.695% |  |
| Cc1ccc(CN2CCC(CNC(=O)Nc3ccc(C)c(C)c3)C2)cc1 (centres undefined) | inactive: -21.5% |  |
| Cc1ccc(C)c(NC(=O)/C(C#N)=C/c2ccc(C(C)C)cc2)c1 | inactive: -19.4% |  |
| COc1ccc(C)cc1NC(=O)c1oc2ccc(S(=O)(=O)N3CCC4(CC3)OCCO4)cc2c1C | inactive: -2.01% |  |
| CC(C)N(C(=O)Cn1cc(SCC(=O)Nc2ccccc2C(F)(F)F)c2ccccc21)C(C)C | inactive: -16.2% |  |
| CCCCc1ccc2nc(NC(=O)OC)[nH]c2c1 | inactive |  |
| CC(N)C12CC3CC(CC(C3)C1)C2 (centres undefined) | inactive |  |
| CCOc1ccc(C2C(C(=O)Nc3ccccc3C)=C(C)Nc3nnnn32)cc1 (centres undefined) | inactive: -13% |  |
| Cn1c(=O)c2c(c3ccccc31)OC(=O)CC2c1cccc(Cl)c1 (centres undefined) | inactive: -1.43% |  |
| COc1ccccc1/C=C/c1nc(C#N)c(NCC(C)C)o1 | inactive: 24.3% |  |
| COc1cc(NC(=O)CN2Cc3ccccc3C2=O)cc(OC)c1OC | inactive: -8.79% |  |
| CCOCCn1cnc2sc(C(=O)Nc3ccccc3C(=O)OC)c(C)c2c1=O | inactive: -13.8% [at 11.5 µM] |  |
| CCOc1cccc(CC(=O)N2CCc3c([nH]c4ccccc34)C2c2ccc(SC)cc2)c1OCC (centres undefined) | inactive: -13.6% |  |
| Cc1c(C(=O)NCCO)[n+](=O)c2ccccc2n1[O-] | inactive: 7.91% |  |
| CCOc1ccc(NC(=O)Cn2nc(Cc3ccncc3)c3ccccc3c2=O)cc1 | inactive: -21.8% |  |
| CCCN(CCC)C(=O)c1nn(C)c2c1CSc1ccc(C)cc1-2 | inactive: -15.1% |  |
| CC(C)Cn1c(=O)c2ccccc2n2c(CCC(=O)Nc3ccc(F)cc3)nnc12 | inactive: -13.6% |  |
| COc1ccc(-n2ccnc(NCc3ccccc3Cl)c2=O)cc1OC | inactive: -3.53% |  |
| COc1ccc(C(=O)c2oc3ccccc3c2NC(=O)c2cccc(OC)c2)cc1 | inactive: -7.02% |  |
| CCN(CC)CCOC(=O)c1ccc(NC(=O)c2cc3c(s2)-c2ccccc2OC3)cc1 | inactive: -8.9% |  |
| COc1ccc(CNC(=O)c2sc3nc4n(c(=O)c3c2C)CCCCC4)cc1 | inactive: 1.33% |  |

| SMILES | activity change, negative = inhibition | Potency |
| --- | --- | --- |
| CCc1ccc(NC(=O)CN2C(=O)c3ccccc3Sc3ccc(C(=O)N4CCCC4)cc32)cc1 | inactive: -16.6% |  |
| Cc1nc(-c2ccc(S(=O)(=O)Nc3ccc(Cl)c(C(F)(F)F)c3)cc2)co1 | inactive: -19.5% |  |
| COc1ccc(CNC(=O)C(CC(C)C)N2Cc3ccccc3C2=O)cc1 (centres undefined) | inactive: -11.8% |  |
| Cc1ccc2nc(COc3cccc(NC(=O)c4ccccc4Cl)c3)cc(=O)n2c1 | inactive: 4.8% |  |
| CCOc1ccccc1CNC(=O)c1cnc2sc(N(CC)CC)nn2c1=O | inactive: 1.17% |  |
| CC(C)CN(CCNC(=O)c1cc(-c2cccs2)nc2ccccc12)CC(C)C | inactive: -2.07% |  |
| CC(=O)N1CCc2nc3sc(C(=O)Nc4ccc(Cl)cc4F)c(N)c3c(C(F)(F)F)c2C1 | inactive: 0.129% |  |
| CC(Oc1ccccc1)C(=O)Nc1nnc2n1CCS2 (centres undefined) | inactive: -18.5% |  |
| COC(=O)c1cccc(-n2c(CCC(=O)O)ccc2-c2cccs2)c1 | inactive: 7.86% |  |
| COc1ccc(C(=O)Nc2ccc(-c3nnc4n3CCCCC4)cc2)cc1OC | inactive: -8.28% |  |
| COc1ccc(Cn2c(C(=O)O)c(CNCc3ccc(C)o3)c3ccc(C)cc32)cc1 | inactive: -19.6% |  |
| O=C(c1cc2ccc3cccnc3c2[nH]1)N1CCN(c2ccccc2)CC1 | inactive: 21.1% |  |
| CC(C)c1nc2ccc(C(=O)NC(C)c3ccccc3)cc2o1 (centres undefined) | inactive: 10% |  |
| O=C(NC1CCCC1)c1ccc(CSc2nc3cccnc3n2Cc2ccc(F)cc2)cc1 | inactive: -3.17% |  |
| CCOC(=O)c1ccc2ncc3c(-c4ccccc4)nn(-c4ccc(F)c(Cl)c4)c3c2c1 | inactive: -6.86% |  |
| CCc1ccccc1N1CC(c2nc3ccccc3n2CCCCOc2ccccc2)CC1=O (centres undefined) | inactive: 2.05% |  |
| Oc1ccccc1-c1nc(/C=C/c2ccc(F)cc2)nn1-c1ccccc1 | inactive: 6.16% |  |
| COc1cccc(/C=C/C(=O)Nc2ccc3nc(N4CCN(C)CC4)cc(C)c3c2)c1OC | inactive: -23% |  |
| CCOc1ccc(NC(=O)CSc2ncc3c(n2)-c2ccccc2N(Cc2ccccc2C)S3(=O)=O)cc1 | inactive: -11.2% |  |
| COc1ccc(CCNC(=O)CS(=O)Cc2nc(-c3ccccc3F)oc2C)cc1OC (centres undefined) | inactive: -11.4% |  |
| Cc1cc(C(=O)NCc2ccccc2Cl)c2c(C)nn(-c3ccccc3)c2n1 | inactive: -0.858% |  |
| CCN(CC)CCNC(=O)c1ccc2c(=O)n3nc(Nc4ccccc4OC)sc3nc2c1 | inactive: -10.3% |  |
| O=S1(=O)c2ccccc2N(Cc2cccc(Cl)c2)c2ccccc21 | inactive: -25.4% |  |
| COc1cccc(CNC(=O)C2CCN(c3nnc(-n4c(C)ccc4C)s3)CC2)c1OC | inactive: 1.48% |  |
| CC(=O)c1cc2c(cc1N/C(=N/S(=O)(=O)c1ccc(C)cc1)c1ccc(F)cc1)OCO2 | inactive: -23.7% |  |

| SMILES | activity change, negative = inhibition | Potency |
| --- | --- | --- |
| Cc1c(C(=O)N2CCN(c3ccccc3)CC2)sc2nc3n(c(=O)c12)CCC3 | inactive: -10.3% |  |
| CC(C)CCNC(=O)CN1C(=O)CSc2ccc(S(=O)(=O)N3CCCCC3)cc21 | inactive: -14.4% |  |
| CCc1ccc(S(=O)(=O)c2nnn3c2nc(NC(C)C)c2sccc23)cc1 | inactive: 1.65% |  |
| COc1ccc(CCNC(=O)c2ccc3c(c2)ncn3-c2ccc(C)cc2C)cc1OC | inactive: -28.4% |  |
| Cc1ccc(NC(=O)c2ccc(-n3c(C)nnc3C)cc2)cc1F | inactive: -18.3% |  |
| CCOC(=O)c1c(-c2ccc(C)cc2)csc1NC(=O)c1nc(SC(C)C)ncc1Cl | inactive: -5.78% |  |
| CCc1ccccc1NC(=O)C1CCCN(C(=O)c2cnn(-c3ccccc3)c2-n2cccc2)C1 (centres undefined) | inactive: -27.9% |  |
| CCCc1nc(SCc2cc(=O)c3ccc(C)c(C)c3[nH]2)n[nH]1 | inactive: -0.748% |  |
| CCC(C(=O)NCCc1ccccc1)n1nc(C)n2c(cc3sccc32)c1=O (centres undefined) | inactive: -16.4% |  |
| COc1ccc(S(=O)(=O)N2CCN(Cc3nc4ccc(C)cc4o3)CC2)cc1Cl | inactive: 0% |  |
| CCOc1ccccc1NC(=O)c1c(NC(=O)c2cccc(C)c2)sc2c1CCC2 | inactive: 0.996% |  |
| Cc1ccc(-c2cc(C(F)(F)F)n3nc(C(=O)NCC45CC6CC(CC(C6)C4)C5)cc3n2)cc1 | inactive: -10.4% |  |
| CCOc1ccc(N2CC(NC(=O)c3ccc(S(=O)(=O)N4CCCCC4)cc3)CC2=O)cc1 (centres undefined) | inactive: -12.2% |  |
| CCc1cc2c(cc3c(=O)n(CC(=O)NC4CCC(C)CC4)ncn32)s1 (centres undefined) | inactive: -9.93% |  |
| COc1cc2nc(NCc3ccc(C)cc3)n3nc(-c4ccccc4)nc3c2cc1OC | inactive: 5.48% |  |
| COc1ccc(Nc2nc(N)c3cc(OC)c(OC)cc3n2)cc1 | inactive: 2.62% |  |
| Brc1c(NC2=NCCN2)ccc2nccnc12 | inactive: -6.1% |  |
| CC1CCc2c(sc(NC(=O)C3c4ccccc4Oc4ccccc43)c2C(=O)OC(C)C)C1 (centres undefined) | inactive: -12.1% |  |
| CCOC(=O)c1scc(-c2ccccc2)c1S(=O)(=O)Nc1cc(Cl)c(OC)cc1OC | inactive: -10.7% |  |
| COc1cccc(CNC(=O)c2nn(-c3ccc(C)cc3)c(=O)c3c2c2ccccc2n3C)c1 | inactive: -25.1% |  |
| COC(=O)c1ccc(CSc2nc3c([nH]c4ccccc43)c(=O)n2-c2ccc(OC)cc2)o1 | inactive: -17.2% |  |
| COc1ccc(CNC(=O)c2c3c(nc4ccccc24)C(=O)N(C2CCCCC2)C3)cc1 | inactive: -11.5% |  |
| COc1ccccc1CNS(=O)(=O)c1ccc2c(c1)NC(=O)CC(=O)N2 | inactive: -6.57% |  |
| Cc1ccc(-n2nc(C)c3c(C(=O)NCc4ccccc4)cc(C4CC4)nc32)cc1 | inactive: -14.6% |  |
